Laboratory results: the RNAGym collection of RNA variant scans (doi:10.7554/elife.90254)
The source gives no read counts; variants with many changes may rest on few reads.

B1: LINE1-mini (parent)
chain: GGCAGAGCUCAACACAGCGUGGCAAAGUGGCUGUGGCUAGACUGCC

Variants of: B1
Assay: self-cleavage, relative activity (ratio to wild type); higher = more cleavage; in vitro, sequencing; the parent is a self-cleaving ribozyme
With A24C A25G U34C A39U the self-cleavage was 0.05.
A24C G27A C46A showed a self-cleavage of 0.35.
C23A G36U A41G showed a self-cleavage of 0.03.
In the case of G22A U28C C42A G44U, the self-cleavage is reported as 0.09.
In the case of A24U G44A C45U, the self-cleavage is reported as 0.02.
C23A G29U C37A showed a self-cleavage of 0.03.
In the case of C23A G29U C37U, the self-cleavage is reported as 0.04.
Variant G21U G33U G36C has a self-cleavage of 0.02.
With A24G A25C G33U the self-cleavage was 0.06.
Variant G22A A25G U34A C37A G40C G44C has a self-cleavage of 0.04.
In the case of G22C U32A G44A C46G, the self-cleavage is reported as 0.03.
In the case of C23A U32G G35A A41U, the self-cleavage is reported as 0.03.
In the case of C23G U32A U38C A39G, the self-cleavage is reported as 0.05.
C23A A24U U38A gave a self-cleavage of 1.51.
G22A G27C G29C G33U gave a self-cleavage of 0.11.
For G21U G36A A41C, the self-cleavage was 0.11.
Variant C23A A25G G33C U43G C45U has a self-cleavage of 0.01.
G22A G29A C45A showed a self-cleavage of 0.61.
G22C U32A U34A C37U C45U gave a self-cleavage of 0.03.
For C23U U32G A41G, the self-cleavage was 0.07.
For A24G U38G A39G, the self-cleavage was 0.
With C23A U34C G44A the self-cleavage was 0.22.
C23U G40C C45U gave a self-cleavage of 0.2.
In the case of C23U U28G G33C A39U, the self-cleavage is reported as 0.04.
With C23A U32A A39G the self-cleavage was 0.04.
C23U A24U A25U G36C gave a self-cleavage of 0.02.
For C23U A25C G40U, the self-cleavage was 0.02.
Variant G22A C23G G27C C46A has a self-cleavage of 1.12.
Variant G22C U34A A41G has a self-cleavage of 0.02.
Work on G22U C31A G44C yielded a self-cleavage of 0.04.
For A24C A26G C37G C45G, the self-cleavage was 0.04.
With C23A C42G C46U the self-cleavage was 0.02.
For G22U U38C A41U, the self-cleavage was 0.02.
G22U U28A G33C showed a self-cleavage of 0.04.
C23A U28C U38A U43A showed a self-cleavage of 0.12.
With C23U G30U C46A the self-cleavage was 1.23.
In the case of G22A G30A U32C, the self-cleavage is reported as 0.06.
C23U U38A A41G gave a self-cleavage of 0.15.
With C23G U34G G40U the self-cleavage was 0.04.
Variant C23G G29U G35A has a self-cleavage of 0.09.
Work on C23G U34G C37U G40U yielded a self-cleavage of 0.01.
With G22C C23U A25C A26C the self-cleavage was 0.86.
C23U G33C U38G showed a self-cleavage of 0.01.
In the case of C23G U34C A39C, the self-cleavage is reported as 0.09.
In the case of A24C G29U U43A, the self-cleavage is reported as 0.01.
C23A G30U C42A gave a self-cleavage of 0.11.
Work on C23A A25G G40U A41C yielded a self-cleavage of 0.02.
Work on C23G G27A U38G yielded a self-cleavage of 0.04.
G22A U38G G40A showed a self-cleavage of 0.01.
For G22U C31G A39G, the self-cleavage was 0.03.
With G22A U28C G35U C45A the self-cleavage was 0.06.
In the case of G22A A25C C42U, the self-cleavage is reported as 0.35.
A24U U34A A41C showed a self-cleavage of 0.03.
G22A A41C C42A gave a self-cleavage of 0.09.
With G22C U38A G40C the self-cleavage was 0.12.
C23U C31U U32G gave a self-cleavage of 0.03.
For G22U A39G U43C, the self-cleavage was 0.11.
C23U C31A G36C A41C G44C showed a self-cleavage of 0.02.
Variant C23A G27U C42U has a self-cleavage of 0.66.
Variant G22U C37A G44A has a self-cleavage of 0.12.
For G22C G30A C31G G40U, the self-cleavage was 0.02.
A24C U38G C42A gave a self-cleavage of 0.01.
For G22U G27U U32A G44A, the self-cleavage was 0.04.
A24U C37G C46A gave a self-cleavage of 0.04.
Variant G22C G27C G44C has a self-cleavage of 0.13.
With G22U U32A C46U the self-cleavage was 0.22.
In the case of A24C C37G U38G, the self-cleavage is reported as 0.01.
Work on C23U A24C U43C yielded a self-cleavage of 0.05.
Variant A24G G40C U43C has a self-cleavage of 0.14.
Variant C23U A25G G29C has a self-cleavage of 0.12.
With C23U U28A C31U the self-cleavage was 0.99.
With G22U A24C A39C A41C the self-cleavage was 0.07.
With C23G G30C G33U C46A the self-cleavage was 0.02.
Work on G22C A24G U28G G29U U38G C42U yielded a self-cleavage of 0.01.
Work on A24U G35C U38C G44A yielded a self-cleavage of 0.09.
Work on G22A C31A G44A yielded a self-cleavage of 0.07.
C23U U38G G44U showed a self-cleavage of 0.
With C23G A26G G33C U43A the self-cleavage was 0.01.
Variant G21U U34G G36A has a self-cleavage of 0.17.
In the case of G22C U28A U32C G40U, the self-cleavage is reported as 0.01.
For G22C A25C U32G, the self-cleavage was 0.06.
In the case of G21U U43G C46U, the self-cleavage is reported as 0.02.
Variant G21U U43G C46G has a self-cleavage of 0.08.
In the case of G22A G29C G30U U38A C45U, the self-cleavage is reported as 0.23.
For A24C G35U C46A, the self-cleavage was 0.05.
In the case of G22U A25U C42A, the self-cleavage is reported as 0.3.
For C23U C31G C46A, the self-cleavage was 0.19.
Work on C23G A26U U38G yielded a self-cleavage of 0.03.
With A24G G27C G33U U43C G44U the self-cleavage was 0.04.
Work on G22A G33U C45U yielded a self-cleavage of 0.39.
For A24G A25U G40C, the self-cleavage was 0.31.
C23A G30A G44C gave a self-cleavage of 1.36.
In the case of G22A A24C C45A, the self-cleavage is reported as 0.59.
Work on C23G G29C C37A A39U yielded a self-cleavage of 0.
For G22C C23A U28C, the self-cleavage was 0.27.
G21U U28C C31A showed a self-cleavage of 0.33.
In the case of C23A G29A U38G, the self-cleavage is reported as 0.02.
C23A A24G C31A A39U A41C showed a self-cleavage of 0.
Work on A24C G30C G33U U34A G44U yielded a self-cleavage of 0.05.
Work on C23G G27A G29U U38C G40U yielded a self-cleavage of 0.14.
Work on G22A A25C U32A yielded a self-cleavage of 0.06.
A24U G33A G36U gave a self-cleavage of 0.02.
In the case of C23G A41C G44A, the self-cleavage is reported as 0.08.
In the case of A24U C37U C45A, the self-cleavage is reported as 0.04.
C23U U28G G33U G35C C42U showed a self-cleavage of 0.
Variant C23G C42G C45G has a self-cleavage of 0.02.
For G22U A39U G44A C45U, the self-cleavage was 0.
C23A A26G G27A G35A U43A gave a self-cleavage of 0.03.
Variant G22U U34A C42A has a self-cleavage of 0.1.
With C23A G29A G40U the self-cleavage was 0.08.
For G21U U38C G40U, the self-cleavage was 0.11.
With G22C C23A G27C the self-cleavage was 0.26.
C23A C31U G40U showed a self-cleavage of 0.17.
G22A U28G G29A C31U showed a self-cleavage of 1.67.
For A24C C45G C46G, the self-cleavage was 0.
For C23U G30A G40U, the self-cleavage was 0.28.
G22A A24C C42U showed a self-cleavage of 0.5.
Variant C23U A24G A26G G36A has a self-cleavage of 0.15.
With G22U A25G G30A A41U the self-cleavage was 0.46.
With A24U C31A U43C C46U the self-cleavage was 0.03.
A24C C31G U34C showed a self-cleavage of 0.16.
For C23A C31G U32G G33C C42A C45U, the self-cleavage was 0.01.
For A24C C42U U43G, the self-cleavage was 0.
Variant C23A G35C A41U has a self-cleavage of 0.08.
Variant C23A G29U C31U C46A has a self-cleavage of 0.16.
With C23A G30C G35U G36U the self-cleavage was 0.16.
For C23A A25U G29C, the self-cleavage was 0.55.
G22A C23U G36U C37U showed a self-cleavage of 0.
In the case of G22U G30U G33U, the self-cleavage is reported as 0.01.
C23U G30U G36U C42U gave a self-cleavage of 0.02.
A24C C31A A39U showed a self-cleavage of 0.06.
For C23G A24C G29A C37U, the self-cleavage was 0.02.
Variant C23G C37A C45G has a self-cleavage of 0.02.
Work on A24C G44C C45U yielded a self-cleavage of 0.05.
Variant C23U U34G C37G has a self-cleavage of 0.01.
Variant A24G G29U G30A G40C C45G has a self-cleavage of 0.05.
Variant A24U C31U A41G has a self-cleavage of 0.
Variant A24C A26C G29U has a self-cleavage of 0.33.
A24U G27U U32C G33C showed a self-cleavage of 0.01.
In the case of C23A G30A U34A, the self-cleavage is reported as 0.16.
C23A C37U C42A gave a self-cleavage of 0.03.
In the case of C23G G27C G40U, the self-cleavage is reported as 0.06.
In the case of G21U U32G G40C C46U, the self-cleavage is reported as 0.05.
With G22U A25U G40U the self-cleavage was 0.15.
Variant C23A U28G G33U has a self-cleavage of 0.06.
With G22U G36C U38C A41U C45U the self-cleavage was 0.01.
C23A A39G C42G showed a self-cleavage of 0.02.
For C23A C42A C46A, the self-cleavage was 0.47.
With G22U A24C A26C G33U the self-cleavage was 0.1.
Variant G21U U32G G36U has a self-cleavage of 0.1.
Variant C23U G30A G35C has a self-cleavage of 0.16.
A24C G30C A41G showed a self-cleavage of 0.03.
Variant G21U G35C G40A has a self-cleavage of 0.03.
For A24G A25U G33A, the self-cleavage was 0.04.
G22U C37G C46U gave a self-cleavage of 0.01.
Work on G22C U43C C46U yielded a self-cleavage of 0.02.
In the case of G22U U34G G44C, the self-cleavage is reported as 0.14.
For A24G A25C G44C, the self-cleavage was 0.16.
G22A A41G G44C gave a self-cleavage of 0.07.
In the case of G22C G33C C46U, the self-cleavage is reported as 0.1.
Variant G22A G27C C31U has a self-cleavage of 0.01.
G22C G29U G35C U43A showed a self-cleavage of 0.05.
In the case of G22A U32G C37G, the self-cleavage is reported as 0.04.
With G22U G30U A39U A41G U43G the self-cleavage was 0.03.
Work on C23U C37U G40A yielded a self-cleavage of 0.03.
In the case of G22U C23A U43G, the self-cleavage is reported as 0.
With C23A G40C C42U the self-cleavage was 0.02.
